The values that follow come from a collection of fitness landscapes (doi:10.1016/j.celrep.2020.107928).

Sequences and labels used below:
B1: Caulobacter ParB omega fusion; a variant is named by its letters at X, in order, B8GW30 (parent)
chain: MESVVVGEPGMSEGRRGLGRGLSALLGEVDAAPAQAPGEQLGGSREAPIEILQRNPDQPRRTFREEDLEDLSNSIREKGVLQPILVRPSPDTAGEYQIVAGERAWRAAQRAGLKTVPIMVRELDDLAVLEIGIIENVQRADLNVLEEALSYKVLMEKFERTQENIAQTIGKSXSHVANXMRLLXLPDEVQSYLVSGELTAXHARAIAAAADPVALAKQIIEGGLSVRETEALARKAPNLSAGKSKGGRPPRVKDTDTQALESDLSSVLGLDVSIDHRGSTGTLTITYATLEQLDDLCNRLTRGI

The full ranking holds about 81,000 sequences; the median of “one-hybrid fitness for binding parS DNA” is about -0.17, and the highest 2% start at about 0.51. The list shows a part of the results.

The variants in the test derive from B1. The experiment in a line: one-hybrid fitness for binding parS DNA (scaled: cognate 1, non-cognate 0); higher = stronger binding. The following applies: with parS DNA site. In a few lines:
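Pre- and post-selection plasmids were Illumina-sequenced, three replicate libraries were pooled, and any variant with under 10 reads was removed. The libraries were Caulobacter ParB with four specificity codons randomised, selected in E. coli USO through a HIS3 reporter whose site is 19 bp from the promoter. Cells grew 48 hours at 37°C on M9 without histidine, with 0.1 mM IPTG and 5 mM 3-AT. Fitness is the log change in variant-to-wild-type read ratio, rescaled against cognate and non-cognate.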
As for AWMN, the “one-hybrid fitness for binding parS DNA” value was ≤ 0.2.

QKML: the “one-hybrid fitness for binding parS DNA” value is ≤ 0.2.

WRLG: the “one-hybrid fitness for binding parS DNA” value is ≤ 0.2.

Consider RTIQ, for which the “one-hybrid fitness for binding parS DNA” value is ≤ 0.2.

Take GFYM: the “one-hybrid fitness for binding parS DNA” value is ≤ 0.2.

With RPFF, the “one-hybrid fitness for binding parS DNA” value was ≤ 0.2.

Regarding CMLD, the “one-hybrid fitness for binding parS DNA” value is ≤ 0.2.

For SKSD, the “one-hybrid fitness for binding parS DNA” value is ≤ 0.2.

With SPDI, the “one-hybrid fitness for binding parS DNA” value is ≤ 0.2.

LHWS: the “one-hybrid fitness for binding parS DNA” value is ≤ 0.2.

Consider RALH, for which the “one-hybrid fitness for binding parS DNA” value was 0.211.

For the variant QVIS, the “one-hybrid fitness for binding parS DNA” value was ≤ 0.2.

As for SLWG, the “one-hybrid fitness for binding parS DNA” value is ≤ 0.2.

Turning to VQIT, the “one-hybrid fitness for binding parS DNA” value was ≤ 0.2.

In the case of PQPM, the “one-hybrid fitness for binding parS DNA” value was ≤ 0.2.

As for RYKG, the “one-hybrid fitness for binding parS DNA” value is 0.91.

Regarding TVPM, the “one-hybrid fitness for binding parS DNA” value was ≤ 0.2.

On to SPFS, for which the “one-hybrid fitness for binding parS DNA” value was ≤ 0.2.

Take ACCI: the “one-hybrid fitness for binding parS DNA” value was ≤ 0.2.

With VGLN, the “one-hybrid fitness for binding parS DNA” value is ≤ 0.2.

For the variant QRAW, the “one-hybrid fitness for binding parS DNA” value was ≤ 0.2.

Regarding QSAM, the “one-hybrid fitness for binding parS DNA” value was ≤ 0.2.

In the case of HTHE, the “one-hybrid fitness for binding parS DNA” value was ≤ 0.2.

As to QHNQ, the “one-hybrid fitness for binding parS DNA” value was ≤ 0.2.

Turning to RPLT, the “one-hybrid fitness for binding parS DNA” value was ≤ 0.2.

WQHT: the “one-hybrid fitness for binding parS DNA” value was ≤ 0.2.

For RSQC, the “one-hybrid fitness for binding parS DNA” value turned out to be 0.958.

In the case of GRSA, the “one-hybrid fitness for binding parS DNA” value is ≤ 0.2.

On to ELPV, for which the “one-hybrid fitness for binding parS DNA” value is ≤ 0.2.

As to EGMC, the “one-hybrid fitness for binding parS DNA” value was ≤ 0.2.

As for VYMS, the “one-hybrid fitness for binding parS DNA” value is ≤ 0.2.

Consider QRGL, for which the “one-hybrid fitness for binding parS DNA” value is ≤ 0.2.

For the variant HIYS, the “one-hybrid fitness for binding parS DNA” value was ≤ 0.2.

For RYEH, the “one-hybrid fitness for binding parS DNA” value is ≤ 0.2.

GRKW: the “one-hybrid fitness for binding parS DNA” value is ≤ 0.2.

Turning to QESV, the “one-hybrid fitness for binding parS DNA” value was ≤ 0.2.

Take TGTW: the “one-hybrid fitness for binding parS DNA” value was ≤ 0.2.

Consider TCPW, for which the “one-hybrid fitness for binding parS DNA” value was ≤ 0.2.

As to LESA, the “one-hybrid fitness for binding parS DNA” value is ≤ 0.2.

HDRS: the “one-hybrid fitness for binding parS DNA” value is ≤ 0.2.

For QWTG, the “one-hybrid fitness for binding parS DNA” value was ≤ 0.2.

On to WLRI, for which the “one-hybrid fitness for binding parS DNA” value is ≤ 0.2.

As to QSYH, the “one-hybrid fitness for binding parS DNA” value was ≤ 0.2.

As to QSEI, the “one-hybrid fitness for binding parS DNA” value is ≤ 0.2.

IHAR: the “one-hybrid fitness for binding parS DNA” value is ≤ 0.2.

For HTPS, the “one-hybrid fitness for binding parS DNA” value was ≤ 0.2.

Consider YRPF, for which the “one-hybrid fitness for binding parS DNA” value is ≤ 0.2.

Take TQPN: the “one-hybrid fitness for binding parS DNA” value was ≤ 0.2.

In the case of PSKR, the “one-hybrid fitness for binding parS DNA” value is ≤ 0.2.

For the variant QTSN, the “one-hybrid fitness for binding parS DNA” value is ≤ 0.2.

For TPNI, the “one-hybrid fitness for binding parS DNA” value is ≤ 0.2.

ANLP: the “one-hybrid fitness for binding parS DNA” value is ≤ 0.2.

For the variant LAKR, the “one-hybrid fitness for binding parS DNA” value is ≤ 0.2.

TSKS: the “one-hybrid fitness for binding parS DNA” value is ≤ 0.2.

With NPDA, the “one-hybrid fitness for binding parS DNA” value was ≤ 0.2.

With SCAN, the “one-hybrid fitness for binding parS DNA” value is ≤ 0.2.

On to NYRY, for which the “one-hybrid fitness for binding parS DNA” value is ≤ 0.2.

As for CYQR, the “one-hybrid fitness for binding parS DNA” value is ≤ 0.2.

As to LTFS, the “one-hybrid fitness for binding parS DNA” value was ≤ 0.2.

Consider RWFS, for which the “one-hybrid fitness for binding parS DNA” value turned out to be 0.691.

For the variant SPLD, the “one-hybrid fitness for binding parS DNA” value was ≤ 0.2.

Take HLLN: the “one-hybrid fitness for binding parS DNA” value is ≤ 0.2.

As to VFNC, the “one-hybrid fitness for binding parS DNA” value is ≤ 0.2.

On to WTER, for which the “one-hybrid fitness for binding parS DNA” value is ≤ 0.2.

QFTL: the “one-hybrid fitness for binding parS DNA” value was ≤ 0.2.

PFGT: the “one-hybrid fitness for binding parS DNA” value is ≤ 0.2.

For the variant LCLW, the “one-hybrid fitness for binding parS DNA” value was ≤ 0.2.

As to RGDY, the “one-hybrid fitness for binding parS DNA” value was ≤ 0.2.

In the case of ACLN, the “one-hybrid fitness for binding parS DNA” value is ≤ 0.2.

With WLEL, the “one-hybrid fitness for binding parS DNA” value is ≤ 0.2.

Take RVIT: the “one-hybrid fitness for binding parS DNA” value worked out at 0.703.

With RVFY, the “one-hybrid fitness for binding parS DNA” value is 0.464.

As to FMTG, the “one-hybrid fitness for binding parS DNA” value was ≤ 0.2.

On to GWKC, for which the “one-hybrid fitness for binding parS DNA” value was ≤ 0.2.

Take ALTR: the “one-hybrid fitness for binding parS DNA” value was ≤ 0.2.

As to DDCG, the “one-hybrid fitness for binding parS DNA” value was ≤ 0.2.

Consider VAMS, for which the “one-hybrid fitness for binding parS DNA” value is ≤ 0.2.

WNSS: the “one-hybrid fitness for binding parS DNA” value is ≤ 0.2.

Consider SIGC, for which the “one-hybrid fitness for binding parS DNA” value is ≤ 0.2.

For the variant LVNL, the “one-hybrid fitness for binding parS DNA” value was ≤ 0.2.

For the variant AAPD, the “one-hybrid fitness for binding parS DNA” value is ≤ 0.2.

Consider LCRP, for which the “one-hybrid fitness for binding parS DNA” value is ≤ 0.2.

For the variant ETTD, the “one-hybrid fitness for binding parS DNA” value is ≤ 0.2.

Take TRDK: the “one-hybrid fitness for binding parS DNA” value was ≤ 0.2.

Turning to INDL, the “one-hybrid fitness for binding parS DNA” value is ≤ 0.2.

With TRVT, the “one-hybrid fitness for binding parS DNA” value is ≤ 0.2.

Consider PRHE, for which the “one-hybrid fitness for binding parS DNA” value is ≤ 0.2.

For SWRD, the “one-hybrid fitness for binding parS DNA” value was ≤ 0.2.

Take NDPS: the “one-hybrid fitness for binding parS DNA” value was ≤ 0.2.

Consider ADLS, for which the “one-hybrid fitness for binding parS DNA” value is ≤ 0.2.

For LKTE, the “one-hybrid fitness for binding parS DNA” value was ≤ 0.2.

Turning to PYIH, the “one-hybrid fitness for binding parS DNA” value is ≤ 0.2.

Consider MLRC, for which the “one-hybrid fitness for binding parS DNA” value is ≤ 0.2.

For the variant FTKM, the “one-hybrid fitness for binding parS DNA” value was ≤ 0.2.

Consider HDLI, for which the “one-hybrid fitness for binding parS DNA” value is ≤ 0.2.

On to TIWT, for which the “one-hybrid fitness for binding parS DNA” value was ≤ 0.2.

As for WNHF, the “one-hybrid fitness for binding parS DNA” value is ≤ 0.2.

With HRSQ, the “one-hybrid fitness for binding parS DNA” value is ≤ 0.2.

In the case of QAFL, the “one-hybrid fitness for binding parS DNA” value was ≤ 0.2.

As for VSRD, the “one-hybrid fitness for binding parS DNA” value was ≤ 0.2.

In the case of QKCA, the “one-hybrid fitness for binding parS DNA” value was ≤ 0.2.

Turning to APEG, the “one-hybrid fitness for binding parS DNA” value was ≤ 0.2.

With RMPP, the “one-hybrid fitness for binding parS DNA” value was ≤ 0.2.

Turning to LDKS, the “one-hybrid fitness for binding parS DNA” value was ≤ 0.2.

Regarding IDVL, the “one-hybrid fitness for binding parS DNA” value was ≤ 0.2.

As for EDTE, the “one-hybrid fitness for binding parS DNA” value is ≤ 0.2.

For the variant YPPG, the “one-hybrid fitness for binding parS DNA” value is ≤ 0.2.

With YHHG, the “one-hybrid fitness for binding parS DNA” value is ≤ 0.2.

Turning to LPML, the “one-hybrid fitness for binding parS DNA” value was ≤ 0.2.

For the variant EHVR, the “one-hybrid fitness for binding parS DNA” value was ≤ 0.2.

CTVT: the “one-hybrid fitness for binding parS DNA” value was ≤ 0.2.

For TPDC, the “one-hybrid fitness for binding parS DNA” value was ≤ 0.2.

Take QGTL: the “one-hybrid fitness for binding parS DNA” value was ≤ 0.2.

As to NMVT, the “one-hybrid fitness for binding parS DNA” value is ≤ 0.2.

As for KNKV, the “one-hybrid fitness for binding parS DNA” value was ≤ 0.2.

As to QNPQ, the “one-hybrid fitness for binding parS DNA” value was ≤ 0.2.

Take CTTC: the “one-hybrid fitness for binding parS DNA” value is ≤ 0.2.

Turning to NCIS, the “one-hybrid fitness for binding parS DNA” value is ≤ 0.2.

In the case of FQHT, the “one-hybrid fitness for binding parS DNA” value is ≤ 0.2.

With TEVM, the “one-hybrid fitness for binding parS DNA” value is ≤ 0.2.

Take VPNS: the “one-hybrid fitness for binding parS DNA” value is ≤ 0.2.

With WKKA, the “one-hybrid fitness for binding parS DNA” value was ≤ 0.2.

With HHMF, the “one-hybrid fitness for binding parS DNA” value is ≤ 0.2.

For the variant WRSC, the “one-hybrid fitness for binding parS DNA” value is ≤ 0.2.

As for CKHG, the “one-hybrid fitness for binding parS DNA” value is ≤ 0.2.

Take NAGG: the “one-hybrid fitness for binding parS DNA” value is ≤ 0.2.

For the variant ITLV, the “one-hybrid fitness for binding parS DNA” value is ≤ 0.2.

For QHQM, the “one-hybrid fitness for binding parS DNA” value was ≤ 0.2.

Turning to WFDG, the “one-hybrid fitness for binding parS DNA” value was ≤ 0.2.

Turning to AVRS, the “one-hybrid fitness for binding parS DNA” value is ≤ 0.2.

Take AYQC: the “one-hybrid fitness for binding parS DNA” value was ≤ 0.2.

As for HRSW, the “one-hybrid fitness for binding parS DNA” value is ≤ 0.2.

For RRDD, the “one-hybrid fitness for binding parS DNA” value was ≤ 0.2.

In the case of VTVC, the “one-hybrid fitness for binding parS DNA” value was ≤ 0.2.

For KPHC, the “one-hybrid fitness for binding parS DNA” value is ≤ 0.2.

Take KHSS: the “one-hybrid fitness for binding parS DNA” value was ≤ 0.2.

As to WMIS, the “one-hybrid fitness for binding parS DNA” value was ≤ 0.2.

RVLI: the “one-hybrid fitness for binding parS DNA” value is ≤ 0.2.

Consider SGMG, for which the “one-hybrid fitness for binding parS DNA” value was ≤ 0.2.

SAHS: the “one-hybrid fitness for binding parS DNA” value was ≤ 0.2.

Take GRTA: the “one-hybrid fitness for binding parS DNA” value was ≤ 0.2.

As for TDSL, the “one-hybrid fitness for binding parS DNA” value was ≤ 0.2.

As for AQSF, the “one-hybrid fitness for binding parS DNA” value is ≤ 0.2.

Regarding LYCN, the “one-hybrid fitness for binding parS DNA” value is ≤ 0.2.

Take VRTV: the “one-hybrid fitness for binding parS DNA” value was ≤ 0.2.

As for MPMS, the “one-hybrid fitness for binding parS DNA” value was ≤ 0.2.

Consider EKLC, for which the “one-hybrid fitness for binding parS DNA” value was ≤ 0.2.

Regarding MSPS, the “one-hybrid fitness for binding parS DNA” value was ≤ 0.2.

With YTLR, the “one-hybrid fitness for binding parS DNA” value was ≤ 0.2.

Take DLDG: the “one-hybrid fitness for binding parS DNA” value was ≤ 0.2.

With NGAM, the “one-hybrid fitness for binding parS DNA” value was ≤ 0.2.

With LRPV, the “one-hybrid fitness for binding parS DNA” value was ≤ 0.2.

Regarding DLKG, the “one-hybrid fitness for binding parS DNA” value is ≤ 0.2.
